Source: article PMC7228994
Numbering of substitutions follows the chain as printed. These are yes or no findings as the source states them, for the method shown. In cells and extracts the contact can be indirect. Some results given as binding are weak or reduced against the parent protein; the word gives no strength. Where a sequence is shown, tags or fusion partners need not be part of it.

Amino acid sequences for entries named in this document (tags omitted).
UniProt Q9BXW9: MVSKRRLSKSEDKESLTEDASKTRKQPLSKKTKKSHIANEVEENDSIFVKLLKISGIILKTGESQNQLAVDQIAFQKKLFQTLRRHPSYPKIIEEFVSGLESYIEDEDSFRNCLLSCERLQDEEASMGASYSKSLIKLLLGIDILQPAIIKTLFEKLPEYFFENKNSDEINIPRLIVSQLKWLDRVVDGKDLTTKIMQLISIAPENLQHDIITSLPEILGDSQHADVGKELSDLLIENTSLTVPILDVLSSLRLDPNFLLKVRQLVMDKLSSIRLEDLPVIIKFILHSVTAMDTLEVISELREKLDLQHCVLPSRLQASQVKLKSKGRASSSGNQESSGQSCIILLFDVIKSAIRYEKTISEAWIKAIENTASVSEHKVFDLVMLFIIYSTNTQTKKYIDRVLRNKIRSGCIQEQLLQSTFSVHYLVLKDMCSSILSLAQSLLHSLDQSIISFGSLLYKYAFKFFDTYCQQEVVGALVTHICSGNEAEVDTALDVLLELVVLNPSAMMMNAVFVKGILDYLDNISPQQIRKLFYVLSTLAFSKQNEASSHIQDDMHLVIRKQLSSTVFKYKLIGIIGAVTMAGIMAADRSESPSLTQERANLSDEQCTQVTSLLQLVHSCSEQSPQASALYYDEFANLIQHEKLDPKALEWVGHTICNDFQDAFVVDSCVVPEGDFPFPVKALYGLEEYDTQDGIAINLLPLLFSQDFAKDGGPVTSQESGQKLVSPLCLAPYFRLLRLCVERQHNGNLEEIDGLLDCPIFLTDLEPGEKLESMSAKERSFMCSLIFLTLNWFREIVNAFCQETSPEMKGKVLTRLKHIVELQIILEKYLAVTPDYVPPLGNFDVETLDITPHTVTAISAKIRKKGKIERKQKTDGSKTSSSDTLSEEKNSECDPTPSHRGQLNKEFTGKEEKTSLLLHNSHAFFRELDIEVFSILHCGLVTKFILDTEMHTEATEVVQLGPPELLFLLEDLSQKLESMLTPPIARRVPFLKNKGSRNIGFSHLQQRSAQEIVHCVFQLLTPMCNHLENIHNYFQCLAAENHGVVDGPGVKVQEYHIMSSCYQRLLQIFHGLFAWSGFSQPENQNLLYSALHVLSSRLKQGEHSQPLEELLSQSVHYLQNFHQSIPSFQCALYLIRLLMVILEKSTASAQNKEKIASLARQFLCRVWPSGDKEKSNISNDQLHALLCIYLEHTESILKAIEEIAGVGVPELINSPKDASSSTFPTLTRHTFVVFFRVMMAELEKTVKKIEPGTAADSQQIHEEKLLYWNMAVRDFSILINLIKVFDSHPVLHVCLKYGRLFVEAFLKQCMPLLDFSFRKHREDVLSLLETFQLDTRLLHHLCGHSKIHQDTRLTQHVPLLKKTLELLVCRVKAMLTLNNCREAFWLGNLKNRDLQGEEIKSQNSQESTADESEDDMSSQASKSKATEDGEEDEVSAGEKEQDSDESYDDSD
UniProt Q8IY92: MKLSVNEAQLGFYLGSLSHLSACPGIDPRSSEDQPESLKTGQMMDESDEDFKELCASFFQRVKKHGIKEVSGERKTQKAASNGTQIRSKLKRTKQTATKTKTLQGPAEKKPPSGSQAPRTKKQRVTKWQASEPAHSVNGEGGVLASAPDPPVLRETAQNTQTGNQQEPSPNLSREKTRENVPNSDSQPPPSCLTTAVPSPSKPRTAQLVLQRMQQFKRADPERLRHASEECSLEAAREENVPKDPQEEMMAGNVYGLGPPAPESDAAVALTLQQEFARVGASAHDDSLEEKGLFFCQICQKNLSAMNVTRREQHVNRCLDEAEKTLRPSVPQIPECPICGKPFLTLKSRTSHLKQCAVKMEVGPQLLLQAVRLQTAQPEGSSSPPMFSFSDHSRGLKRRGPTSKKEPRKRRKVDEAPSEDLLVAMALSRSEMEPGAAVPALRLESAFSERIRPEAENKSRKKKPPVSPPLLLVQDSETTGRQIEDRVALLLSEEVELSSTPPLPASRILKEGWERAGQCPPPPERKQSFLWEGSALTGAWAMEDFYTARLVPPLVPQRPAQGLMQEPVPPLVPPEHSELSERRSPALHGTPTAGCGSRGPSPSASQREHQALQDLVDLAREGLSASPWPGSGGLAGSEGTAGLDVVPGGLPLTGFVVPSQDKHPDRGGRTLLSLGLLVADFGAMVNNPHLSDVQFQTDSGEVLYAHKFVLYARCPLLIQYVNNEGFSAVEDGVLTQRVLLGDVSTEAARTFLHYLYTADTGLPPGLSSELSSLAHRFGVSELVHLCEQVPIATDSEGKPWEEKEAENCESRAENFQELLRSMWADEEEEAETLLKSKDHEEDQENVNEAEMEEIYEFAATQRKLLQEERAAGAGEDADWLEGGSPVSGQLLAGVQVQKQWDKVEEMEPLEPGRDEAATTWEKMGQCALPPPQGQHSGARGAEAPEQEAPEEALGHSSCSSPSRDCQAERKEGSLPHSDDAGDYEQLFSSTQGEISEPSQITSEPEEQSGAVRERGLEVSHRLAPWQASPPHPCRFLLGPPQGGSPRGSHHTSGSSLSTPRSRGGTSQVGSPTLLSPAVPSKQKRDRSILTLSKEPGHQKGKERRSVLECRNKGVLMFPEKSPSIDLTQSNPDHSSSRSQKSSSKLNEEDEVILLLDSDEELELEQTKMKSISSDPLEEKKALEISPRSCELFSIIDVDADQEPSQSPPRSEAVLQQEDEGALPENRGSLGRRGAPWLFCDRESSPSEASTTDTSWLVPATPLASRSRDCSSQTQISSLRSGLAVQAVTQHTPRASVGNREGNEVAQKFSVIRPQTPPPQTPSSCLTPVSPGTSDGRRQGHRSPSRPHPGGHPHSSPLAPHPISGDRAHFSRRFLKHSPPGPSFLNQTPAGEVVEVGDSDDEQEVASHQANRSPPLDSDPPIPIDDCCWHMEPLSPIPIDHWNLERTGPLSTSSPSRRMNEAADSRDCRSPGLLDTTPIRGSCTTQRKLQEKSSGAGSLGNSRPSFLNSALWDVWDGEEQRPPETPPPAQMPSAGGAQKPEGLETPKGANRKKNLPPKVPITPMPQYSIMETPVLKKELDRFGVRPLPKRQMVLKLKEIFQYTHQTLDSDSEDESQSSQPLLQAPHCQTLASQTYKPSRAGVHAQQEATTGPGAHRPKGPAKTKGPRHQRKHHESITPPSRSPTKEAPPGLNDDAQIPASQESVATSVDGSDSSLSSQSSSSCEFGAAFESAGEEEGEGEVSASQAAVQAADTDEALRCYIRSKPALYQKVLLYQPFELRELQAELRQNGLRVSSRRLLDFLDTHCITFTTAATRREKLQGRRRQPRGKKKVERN
UniProt P27694: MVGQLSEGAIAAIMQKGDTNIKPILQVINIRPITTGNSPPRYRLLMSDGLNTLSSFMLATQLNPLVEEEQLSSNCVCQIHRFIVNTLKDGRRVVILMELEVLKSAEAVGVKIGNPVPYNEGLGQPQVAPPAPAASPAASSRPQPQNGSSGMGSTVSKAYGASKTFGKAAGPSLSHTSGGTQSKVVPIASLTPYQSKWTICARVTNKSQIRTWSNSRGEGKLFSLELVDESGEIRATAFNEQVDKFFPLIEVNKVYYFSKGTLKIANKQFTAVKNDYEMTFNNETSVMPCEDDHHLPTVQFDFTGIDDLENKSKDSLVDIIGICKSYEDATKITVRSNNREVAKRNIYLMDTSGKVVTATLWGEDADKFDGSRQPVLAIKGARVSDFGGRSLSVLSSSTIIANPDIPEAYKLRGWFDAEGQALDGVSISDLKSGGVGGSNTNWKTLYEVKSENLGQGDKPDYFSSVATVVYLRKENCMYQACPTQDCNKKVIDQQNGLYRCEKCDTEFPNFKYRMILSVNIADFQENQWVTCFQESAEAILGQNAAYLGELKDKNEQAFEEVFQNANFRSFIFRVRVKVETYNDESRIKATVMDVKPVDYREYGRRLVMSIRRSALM

Assays:
Assay in all cases: co-IP; GFP-Trap_A beads on benzonase-treated lysates (30 mM Tris pH 7.5, 150 mM NaCl, 2 mM MgCl2, 0.5% Triton X-100) of U2OS XPF KO cells expressing GFP-tagged XPF forms; cells mock treated or 10 µg/ml MMC for 1 h; immunoblot
[1] = biological target: T1, GFP-tagged XPF carrying the amino acid substitution R689S (human) (UniProt Q92889)
T1 sequence: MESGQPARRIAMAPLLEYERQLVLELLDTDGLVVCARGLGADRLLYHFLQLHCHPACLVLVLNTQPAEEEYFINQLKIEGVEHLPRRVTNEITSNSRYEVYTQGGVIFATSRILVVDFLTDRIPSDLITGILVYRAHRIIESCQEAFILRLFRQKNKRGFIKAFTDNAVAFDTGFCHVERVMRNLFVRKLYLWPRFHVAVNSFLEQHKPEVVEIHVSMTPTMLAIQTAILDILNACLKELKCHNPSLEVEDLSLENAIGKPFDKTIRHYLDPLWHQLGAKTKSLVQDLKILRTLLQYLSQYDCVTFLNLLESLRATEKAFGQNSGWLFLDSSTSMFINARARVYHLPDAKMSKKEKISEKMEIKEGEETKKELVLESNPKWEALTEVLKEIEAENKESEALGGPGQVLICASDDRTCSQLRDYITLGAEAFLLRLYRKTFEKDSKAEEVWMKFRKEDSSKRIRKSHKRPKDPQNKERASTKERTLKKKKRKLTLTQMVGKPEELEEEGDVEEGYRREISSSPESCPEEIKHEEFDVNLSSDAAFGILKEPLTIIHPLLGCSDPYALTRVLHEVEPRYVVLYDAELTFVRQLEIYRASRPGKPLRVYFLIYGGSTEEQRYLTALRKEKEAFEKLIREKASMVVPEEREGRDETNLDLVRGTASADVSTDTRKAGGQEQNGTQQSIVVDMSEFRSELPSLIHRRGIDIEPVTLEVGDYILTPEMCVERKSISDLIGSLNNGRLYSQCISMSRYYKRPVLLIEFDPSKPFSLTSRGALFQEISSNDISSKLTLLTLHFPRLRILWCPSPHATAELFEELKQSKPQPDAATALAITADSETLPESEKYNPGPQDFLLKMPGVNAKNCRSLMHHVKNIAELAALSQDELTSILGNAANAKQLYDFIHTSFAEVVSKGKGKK

[2] = biological target: T2, GFP-tagged XPF carrying the amino acid substitution S786F (human) (UniProt Q92889)
T2 sequence: T1 sequence with S689R, S786F

[3] = biological target: T3, GFP-tagged wild-type XPF (human) (UniProt Q92889)
T3 sequence: T1 sequence with S689R

binding [1]	binding [2]	binding [3]	Substance
no binding	no binding		FANCD2 (from UniProt Q9BXW9 1-1451)
binds	binds	binds	SLX4 (from UniProt Q8IY92 1-1834)
no binding	no binding		RPA70, the largest subunit of the heterotrimeric RPA complex (from UniProt P27694 1-616)
